Results as given in PubChem BioAssay AID504332 (National Center for Advancing Translational Sciences (NCATS), 2011).
Screen size: about 350,000 compounds; about 31,000 (8.9%) were called active. Inconclusive results, whose numbers are uncertain, are shown with a selection of clear calls. Calls follow the shape of the dose curve; as a rule, active = well fitted inhibition curve with a large enough effect; inconclusive = small, poorly fitted or top-dose-only effect; inactive = no such curve, though single readings can be large or run the other way. Potencies beside an inconclusive call are fits to weak or partial responses and may not hold up.

Each molecule was assayed against Histone-lysine N-methyltransferase EHMT2 (Homo sapiens) (UniProt Q96KQ7) (assay: qHTS Assay for Inhibitors of Histone Lysine Methyltransferase G9a). Details: G9a H3K9 monomethylation, AlphaScreen, 2 h; activity, negative = inhibition: at 59 µM (top of the series) unless noted.
UniProt Q96KQ7, sequence (Q96KQ7 whole entry, looked up): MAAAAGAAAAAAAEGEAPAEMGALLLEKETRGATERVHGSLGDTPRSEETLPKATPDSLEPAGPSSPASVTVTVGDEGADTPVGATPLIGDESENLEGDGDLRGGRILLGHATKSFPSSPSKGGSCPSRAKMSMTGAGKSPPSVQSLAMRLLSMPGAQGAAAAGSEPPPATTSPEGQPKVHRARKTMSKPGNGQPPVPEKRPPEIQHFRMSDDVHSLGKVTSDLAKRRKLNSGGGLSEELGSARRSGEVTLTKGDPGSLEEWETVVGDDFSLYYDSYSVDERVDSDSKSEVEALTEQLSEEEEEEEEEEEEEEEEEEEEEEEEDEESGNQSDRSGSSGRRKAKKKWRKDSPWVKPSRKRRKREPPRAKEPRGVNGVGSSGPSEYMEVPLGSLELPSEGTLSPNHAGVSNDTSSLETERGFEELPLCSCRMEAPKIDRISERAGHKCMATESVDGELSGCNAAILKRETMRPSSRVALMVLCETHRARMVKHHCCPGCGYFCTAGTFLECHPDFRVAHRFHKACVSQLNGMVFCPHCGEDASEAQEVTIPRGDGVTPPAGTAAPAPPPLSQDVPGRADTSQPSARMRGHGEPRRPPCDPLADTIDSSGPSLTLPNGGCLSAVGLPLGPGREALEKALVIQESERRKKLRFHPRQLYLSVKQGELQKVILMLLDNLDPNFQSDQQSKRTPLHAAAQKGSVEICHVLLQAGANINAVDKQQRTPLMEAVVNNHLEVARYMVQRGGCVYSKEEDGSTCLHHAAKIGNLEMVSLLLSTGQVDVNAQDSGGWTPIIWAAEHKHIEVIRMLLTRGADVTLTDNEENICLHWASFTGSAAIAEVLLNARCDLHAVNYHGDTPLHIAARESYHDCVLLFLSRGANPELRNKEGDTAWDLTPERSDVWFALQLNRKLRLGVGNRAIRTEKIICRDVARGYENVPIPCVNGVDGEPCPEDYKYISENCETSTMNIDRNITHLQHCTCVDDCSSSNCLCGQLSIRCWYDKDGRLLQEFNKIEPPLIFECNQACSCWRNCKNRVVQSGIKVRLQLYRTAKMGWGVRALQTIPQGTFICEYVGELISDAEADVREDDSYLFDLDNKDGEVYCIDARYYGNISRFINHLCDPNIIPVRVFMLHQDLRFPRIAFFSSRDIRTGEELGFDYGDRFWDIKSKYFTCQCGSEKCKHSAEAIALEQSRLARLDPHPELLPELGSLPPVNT
How it was run: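 Compounds were preincubated with 20 nM G9a for 15 min, after which biotinylated H3K9 peptide (500 nM) and SAM (20 uM) started a 2 h room-temperature reaction. Monomethylated product was quantified by antibody-based AlphaScreen chemiluminescence.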
% is scaled to controls: 0 for no effect and ±100 for the full control effect; potency is read from the fitted curve at half-maximal effect; tags tell the direction and shape of the fitted curve.
Also: nearly all actives have a fitted effect of over 75% in size.

Row | Structure (SMILES) | Potency | activity, negative = inhibition
1 | COc1ccccc1C(=O)O/N=C(/c1ccncc1)c1ccc([N+](=O)[O-])cc1 | inconclusive: 70.8 µM [inhibitor, single point] | 
2 | Cc1cc(C(=O)COc2cccnc2[N+](=O)[O-])c(C)n1Cc1cccs1 | inconclusive: 39.8 µM [inhibitor, full curve] | 
3 | CC(=O)Nc1cccc(C(=O)Nc2cccc3ncccc23)c1 | active: 44.7 µM | 
4 | CCOC(=O)Cc1ccc(NC(=O)Nc2nnc(N3CCCCC3C)s2)cc1 (stereo not given) | inconclusive: 39.8 µM [inhibitor, partial curve, poor fit] | 
5 | Cc1ccc(OCCCN(C)C)c(Br)c1 |  | inconclusive: -96.6% [inhibitor]
6 | CCOC(=O)C1=C(CSc2nc(CC)c(C)cc2C#N)OC(N)=C(C#N)C1c1ccccc1 (stereo not given) | active: 39.8 µM | 
7 | Cn1c(CNC(=O)c2ccco2)nnc1SCC(=O)Nc1cccc(Br)c1 | inconclusive: 79.4 µM [inhibitor, single point] | 
8 | Cc1cccc(OC(=O)c2snnc2C)c1C | inconclusive: 10 µM [inhibitor, partial curve, poor fit] | 
9 | COc1ccccc1N1C(=O)C2C3CC(c4ccccc4)C(C3)C2C1=O (stereo not given) | inconclusive: 1.12 µM [inhibitor, full curve] | 
10 | O=C(Nc1ccc(C(=O)O)cc1)/C(=C\C=C\c1ccccc1)NC(=O)c1cccc(Br)c1 | active: 39.8 µM | 
11 | CN(C)c1ccc(C(=S)NCc2ccco2)cc1 | inconclusive: 3.16 µM [inhibitor, partial curve, poor fit] | 
12 | CCC(=O)N1c2ccc(S(=O)(=O)CCC(=O)NCc3ccc(OC)cc3)cc2CC1C (stereo not given) | inconclusive: 31.6 µM [inhibitor, single point] | 
13 | CC(=O)N1CCc2ccc(S(=O)(=O)N3CC(C)OC(C)C3)cc21 (stereo not given) | inconclusive: 3.98 µM [inhibitor, full curve, poor fit] | 
14 | COc1ccc(-c2nnn(CC(=O)N(CC(=O)NC3CCCC3)c3ccccc3)n2)cc1OC | inactive | 
15 | Cc1ccc(NC(=O)C2CCC(CNS(=O)(=O)c3cccs3)CC2)cc1C (stereo not given) | inactive | 
16 | CCOC(=O)COc1ccc(C2CC(C)=NN2c2ccccc2)cc1 (stereo not given) | inconclusive: 56.2 µM [inhibitor, partial curve] | 
17 | COCCn1nnnc1CN1CCC(C)CC1 | inactive | 
18 | Cc1ccc(/C(O)=C2\C(=O)C(=O)N(C)C2c2cccc([N+](=O)[O-])c2)cc1 (stereo not given) | active: 79.4 µM | 
19 | CC(C)c1ccc(S(=O)(=O)NCc2nc3cccnc3n2Cc2ccc(F)cc2)cc1 | inactive | 
20 | CC(=O)c1cccc(S(=O)(=O)NCCC(=O)Nc2ccc(S(N)(=O)=O)cc2)c1 | active: 50.1 µM | 
21 | CCOC(=O)C(CC)Sc1nc2c(cnn2-c2ccc(F)cc2)c(=O)[nH]1 (stereo not given) | inactive | 
22 | CC(=O)c1c(N2CCOCC2)nc(=S)n(Cc2ccccc2)c1C | inconclusive: 31.6 µM [inhibitor, partial curve, poor fit] | 
23 | CCCn1c(SCC(=O)NC23CC4CC(CC(C4)C2)C3)n[nH]c1=O | inconclusive: 89.1 µM [inhibitor, single point] | 
24 | COc1ccc(N2CCN(S(=O)(=O)CCNC(=O)C3CC3)CC2)cc1 | inconclusive: 28.2 µM [inhibitor, partial curve, poor fit] | 

Row | Structure (SMILES) | Potency | activity, negative = inhibition
25 | CCCC(C1=C(O)CC(C)(C)CC1=O)C1C(=O)CC(C)(C)CC1=O (stereo not given) | active: 28.2 µM | 
26 | Cc1ccsc1CN1CCC(C(=O)NCc2ccccc2Cl)CC1 | active: 10 µM | 
27 | CC(C)Sc1nc(N)c2c3c(sc2n1)CN(C)CC3 | active: 3.16 µM | 
28 | CN1CCN(c2oc(-c3ccco3)nc2S(=O)(=O)c2ccccc2)CC1 | inconclusive: 50.1 µM [inhibitor, partial curve, poor fit] | 
29 | Cc1ccc(CNC(=O)/C=C/c2ccc(Br)o2)cc1 | active: 1.41 µM | 
30 | COc1cc(/C=N/O)cc(Cl)c1OC | inactive | 
31 | COc1cc(OC)c(NC(=O)CCc2nc(C3=CCN(Cc4cccc(Cl)c4)CC3)no2)cc1Cl | inconclusive: 39.8 µM [inhibitor, single point] | 
32 | Cc1cccc(N2CCN(C(=O)CS(=O)(=O)Cc3nc(-c4ccccc4F)oc3C)CC2C)c1 (stereo not given) | inconclusive: 15.8 µM [inhibitor, partial curve] | 
33 | CN(C)C(CNC(=O)Nc1cccc(Cl)c1)c1cccnc1 (stereo not given) | inconclusive: 39.8 µM [inhibitor, full curve] | 
34 | O=c1[nH]c(/C=C/c2ccc([N+](=O)[O-])cc2)c([N+](=O)[O-])c(=O)[nH]1 | active: 28.2 µM | 
35 | Oc1cccc(/C=N/Nc2cc(N3CCCC3)nc(N3CCCC3)n2)c1 | inactive | 
36 | Cc1ccc(S(=O)(=O)N2CCN(C(=O)CCC(=O)OCC(=O)Nc3cccc(C#N)c3)CC2)cc1 | inconclusive: 12.6 µM [inhibitor, partial curve, poor fit] | 
37 | COC(=O)C1CCN(C2=C(NS(=O)(=O)c3ccc(Cl)cc3)C(=O)c3ccccc3C2=O)CC1 | inactive | 
38 | COc1ccc(/C=C2\SC(=S)N(CCC(=O)NC3=NCCS3)C2=O)cc1OC | inconclusive: 39.8 µM [inhibitor, single point] | 
39 | Cc1ccsc1/C=N/n1c(-c2ccncc2)n[nH]c1=S | active: 1.12 µM | 
40 | O=C1C2C3C=CC(C3)C2C(=O)N1CCCCN1C(=O)C2C3C=CC(C3)C2C1=O (stereo not given) |  | inactive: 4.73% [at 12.7 µM]
41 | CC(C)(C)c1ccc(C(=O)N2CCN(CCNC(=O)C(=O)Nc3ccc(F)cc3)CC2)cc1 | inconclusive: 44.7 µM [inhibitor, partial curve] | 
42 | CCCCSc1ncnc2c1sc1nc(N3CCOCC3)c3c(c12)CCCC3 | inactive | 
43 | COc1ccc(/C=C/c2c(-c3cccc(C)c3)oc3ccc(-c4ccc5c(c4)OCO5)cc23)cc1 | inconclusive: 89.1 µM [inhibitor, single point] | 
44 | COc1cccc(/C=C/c2nc(C#N)c(N(C)Cc3ccccc3)o2)c1 | inconclusive: 2.82 µM [inhibitor, full curve] | 
45 | COc1ccc(-c2noc(CSCC(=O)Nc3ccc(C)cc3Br)n2)cc1OC | inactive | 
46 | Cn1c(CCc2nc3ccccc3[nH]2)n[nH]c1=S | inconclusive: 39.8 µM [inhibitor, single point] | 
47 | O=C(NCCCN1CCOCC1)c1ccc(-c2ccc(Cl)cc2)o1 | inconclusive: 50.1 µM [inhibitor, partial curve] | 
48 | COc1ccc(C(CNS(=O)(=O)c2ccccc2)N2CCN(C)CC2)cc1 (stereo not given) | inactive | 

Row | Structure (SMILES) | Potency | activity, negative = inhibition
49 | CC1=C(C)/C(=N\OS(=O)(=O)c2ccccc2)C=CC1=O | active: 15.8 µM | 
50 | CCCCOc1ccc(C(O)(CCN2CCOCC2)c2ccccc2)cc1 (stereo not given) | inconclusive: 89.1 µM [inhibitor, single point] | 
51 | Cc1oc(-c2ccccc2)nc1CSc1nc2c(c(=O)[nH]1)CCC2 | inconclusive: 89.1 µM [inhibitor, partial curve, poor fit] | 
52 | O=C(N/N=C/c1cc2c(cc1[N+](=O)[O-])OCO2)c1cccnc1 | inactive | 
53 | COc1ccc(-n2c(C)ccc2-c2ccccc2)cn1 | inconclusive: 89.1 µM [inhibitor, single point] | 
54 | CCN(CC)CCn1c2c(c(SCC(=O)Nc3cc(OC)cc(OC)c3)nc1=O)CCC2 | inconclusive: 70.8 µM [inhibitor, single point] | 
55 | Cc1cccc(C)c1-n1c(C)cc(/C=N/NC(N)=S)c1C | active: 50.1 µM | 
56 | O=C(NCC(c1cccs1)N1CCOCC1)c1cn(-c2ccccc2)nc1-c1ccc(Cl)cc1 (stereo not given) | inconclusive: 89.1 µM [inhibitor, partial curve, poor fit] | 
57 | COc1ccc(C(=O)/C=C/c2ccc(O)cc2)c(O)c1CC=C(C)C | inconclusive: 89.1 µM [inhibitor, single point] | 
58 | O=S(=O)(c1c(F)cccc1F)N1CCN(Cc2c(O)ccc3ccccc23)CC1 | inconclusive: 4.47 µM [inhibitor, single point] | 
59 | COc1ccc(NC(=O)C(c2ccccn2)N(C(C)=O)c2ccc(C)cc2)cc1 (stereo not given) | inactive | 
60 | COc1ccc(N2CCN(C(=O)c3ccc(Cn4nc(C)c([N+](=O)[O-])c4C)o3)CC2)cc1 | active: 3.55 µM | 
61 | O=C1C2ON(c3ccccc3)C(c3ccncc3)C2C(=O)N1c1ccc(Br)cc1 (stereo not given) | inconclusive: 79.4 µM [inhibitor, single point] | 
62 | COc1ccc(C(=O)C(CN2CCCC2)c2ccccc2)cc1 (stereo not given) | inconclusive: 39.8 µM [inhibitor, single point] | 
63 | COc1ccc(/C=C2\CCC/C(=C\c3ccc(OC)c(OC)c3OC)C2=O)c(OC)c1OC | inconclusive: 89.1 µM [inhibitor, single point] | 
64 | CCOCCn1c(=O)c2c(nc3n2CC(C)CN3Cc2ccccc2)n(C)c1=O (stereo not given) | inactive | 
65 | N#Cc1c(Nc2ccccc2)sc(C(=O)c2ccc(F)cc2)c1N | inconclusive: 14.1 µM [inhibitor, single point] | 
66 | CC(C)N1CC(C(=O)Nc2cccc([N+](=O)[O-])c2)CC1=O (stereo not given) |  | inactive: 8.24% [at 0.501 µM]
67 | COc1cc(NC(=O)c2cccs2)c(C(=O)OCC(=O)NCc2ccccc2)cc1OC | inconclusive: 89.1 µM [inhibitor, single point] | 
68 | CC(=O)N1CC(O)CC1C(=O)O (stereo not given) |  | inactive: -3.14% [at 12.7 µM]
69 | O=S(=O)(NCCc1ccccc1)c1ccc(-n2cnnn2)cc1 | inconclusive: 89.1 µM [inhibitor, single point] | 
70 | Cc1ccccc1N(CC(=O)N/N=C/c1cc(Br)c(C)o1)S(C)(=O)=O | inconclusive: 25.1 µM [inhibitor, single point] | 
